{
  "source": "PubChem BioAssay AID488969",
  "about": "(Vanderbilt High Throughput Screening Facility, 2010)",
  "note": "In all, about 110,000 compounds were measured (“z-score”: median about -0.1, highest 2% from about 2 on). Some of the results follow.",
  "data": [
    {"molecular_target": "Metabotropic glutamate receptor 8 (Rattus norvegicus) (UniProt P70579)", "sequence (P70579 whole entry, looked up)": "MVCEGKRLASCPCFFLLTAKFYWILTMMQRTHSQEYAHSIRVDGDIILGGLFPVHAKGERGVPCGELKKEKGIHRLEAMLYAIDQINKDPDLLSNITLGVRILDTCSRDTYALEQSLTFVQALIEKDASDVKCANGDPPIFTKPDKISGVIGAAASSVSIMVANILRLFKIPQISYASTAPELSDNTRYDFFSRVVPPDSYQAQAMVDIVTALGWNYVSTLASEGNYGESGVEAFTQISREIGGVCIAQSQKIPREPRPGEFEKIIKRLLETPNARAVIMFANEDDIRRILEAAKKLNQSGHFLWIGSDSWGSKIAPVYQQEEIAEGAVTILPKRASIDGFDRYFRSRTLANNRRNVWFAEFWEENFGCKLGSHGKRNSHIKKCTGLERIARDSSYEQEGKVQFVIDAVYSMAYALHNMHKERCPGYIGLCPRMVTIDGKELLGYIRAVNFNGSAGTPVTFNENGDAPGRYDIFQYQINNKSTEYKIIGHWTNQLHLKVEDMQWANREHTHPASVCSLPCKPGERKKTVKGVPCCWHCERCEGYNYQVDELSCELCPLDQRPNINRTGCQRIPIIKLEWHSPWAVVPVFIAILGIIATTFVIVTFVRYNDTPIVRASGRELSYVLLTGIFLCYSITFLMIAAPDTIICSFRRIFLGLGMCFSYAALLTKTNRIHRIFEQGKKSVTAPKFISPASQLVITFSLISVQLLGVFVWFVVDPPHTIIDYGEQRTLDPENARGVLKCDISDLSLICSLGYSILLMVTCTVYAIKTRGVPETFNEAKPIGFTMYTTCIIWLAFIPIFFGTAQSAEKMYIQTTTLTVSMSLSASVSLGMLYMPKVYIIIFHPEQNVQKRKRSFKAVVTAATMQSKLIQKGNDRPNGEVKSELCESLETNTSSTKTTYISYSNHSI", "test": "rat mGluR8 modulators via GIRK flux, primary screen, cell-based, thallium flux, HTS (AID 488969)", "conditions": "HEK293 rat mGluR8, GIRK (G protein-gated inwardly rectifying potassium channel) thallium flux, FluoZin2; at 10 µM; stronger effect = higher value; submaximal glutamate (EC20) added with thallium", "values": [
      {"compound": "COc1cc(OC)cc(-c2nc(-c3ccccc3OC)no2)c1", "z-score": -0.117},
      {"compound": "Cc1ccc(S(=O)(=O)NC(=O)Nn2c(C)nnc2C)cc1", "z-score": 0.0611},
      {"compound": "O=C1OC(Nc2ccc(Br)cn2)c2ccccc21", "note": "(stereo unspecified)", "z-score": 1.06},
      {"compound": "COc1ccc(OC)c(NC(=O)C2CCCN(S(=O)(=O)c3cccc4cccnc34)C2)c1", "note": "(stereo unspecified)", "z-score": -0.558},
      {"compound": "CCOC(=O)C1=C(C)NC(=O)C(C(N)=O)C12CCCC2", "note": "(stereo unspecified)", "z-score": -0.24},
      {"compound": "CCCCOc1ccc(/C=N/NC(=O)c2csc(C)c2C)cc1", "z-score": 1.05},
      {"compound": "Cc1cccc(NCc2cc(Cl)ccc2O)n1", "z-score": -0.0871},
      {"compound": "Cc1ccc(C)c(N(CC(=O)NN=C2CCCCCCC2)S(C)(=O)=O)c1", "z-score": -0.202},
      {"compound": "COc1ccc(S(=O)(=O)Nc2nnc(C(C)(C)C)s2)cc1", "z-score": 0.0489},
      {"compound": "Cc1ccc(CNC(=O)CN2CCC(C(N)=O)CC2)cc1", "z-score": 0.66},
      {"compound": "Cc1cccc(N(CC(=O)O)CC(=O)O)c1", "z-score": -0.158},
      {"compound": "O=C(NCc1ccccc1)c1ccc2c(=O)n(CC3CCCO3)c(=S)[nH]c2c1", "note": "(stereo unspecified)", "z-score": 0.0305},
      {"compound": "CCCNC(=O)c1cccc(COCC(F)(F)F)c1", "z-score": 0.43},
      {"compound": "O=C(NC1CCCCC1NC(=O)c1cccs1)c1cccs1", "note": "(stereo unspecified)", "z-score": -0.398},
      {"compound": "Cc1cc(C)cc(C(=O)NC(=S)Nc2ccc(-c3cc4ccccc4oc3=O)cc2)c1", "z-score": 0.106},
      {"compound": "CCCNc1nc(NCC)nc(OC)n1", "z-score": 0.697},
      {"compound": "CCCOc1ccc(N2C(=O)CC(N(CCc3ccc(S(N)(=O)=O)cc3)C(C)=O)C2=O)cc1", "note": "(stereo unspecified)", "z-score": -0.143},
      {"compound": "COc1ccc(CNc2nc3nc(C)cc(C)n3n2)cc1", "z-score": -0.0238},
      {"compound": "COc1cccc(/C=N/NC(=O)c2cc3c(OC)c(OC)ccc3[nH]2)c1OC", "z-score": -0.499},
      {"compound": "Cc1ccccc1C(=O)NN1C(=O)CSC1=S", "z-score": -0.222},
      {"compound": "Cc1nc2oc(C(=O)c3ccc(Br)cc3)c(N)c2c2c1COC(C)(C)C2", "z-score": 0.0116},
      {"compound": "COc1ccc(-c2noc(CCC(=O)NC3CCCCC3)n2)cc1OC", "z-score": 0.0256},
      {"compound": "CCCCC(=O)N=c1sc2cc(S(C)(=O)=O)ccc2n1C", "z-score": -0.518},
      {"compound": "CCCN1C(=O)c2cc(C(=O)NCc3ccc(OC)cc3)ccc2C1O", "note": "(stereo unspecified)", "z-score": -0.335},
      {"compound": "Cc1ccc(C)c(C(=O)NCCN(C)C)c1", "z-score": 0.237},
      {"compound": "CC(C(=O)Nc1ccccc1C(=O)N1CCOCC1)N(c1ccccc1)S(C)(=O)=O", "note": "(stereo unspecified)", "z-score": -0.255},
      {"compound": "CSc1nc(N2CCCC2)c2c(c1C#N)CC(C)(C)OC2", "z-score": -0.933},
      {"compound": "CC(C)(C)NC(=O)CSc1nc2ccc(NC(=O)CSc3nnc(N)s3)cc2s1", "z-score": -0.901},
      {"compound": "O=C1C2C3C=CC(C3)C2C(=O)N1c1ccc2ccccc2n1", "note": "(stereo unspecified)", "z-score": -0.206},
      {"compound": "COc1cc(/C=C/C(=O)Nc2ccncc2)cc(OC)c1OC", "z-score": -0.0404},
      {"compound": "COc1ccc(C2NC(=O)c3sc4nc(C)c(C(C)=O)c(-c5ccc(Cl)cc5)c4c3N2)cc1", "note": "(stereo unspecified)", "z-score": -0.59},
      {"compound": "CCSc1nnc(Cc2cc(=O)[nH]c(=O)[nH]2)n1-c1cc(C)ccc1C", "z-score": -0.0405},
      {"compound": "O=C(CSc1nc(-c2ccccc2)cc(C(F)(F)F)n1)N1CCOCC1", "z-score": 1.21},
      {"compound": "CC(C)C(=O)N1CCN(c2nc(-c3ccccc3)c3c(c2C#N)CCCC3)CC1", "z-score": -1.7},
      {"compound": "CCOC(=O)C(C(C)=O)C(c1ccc(OC)cc1)C(C(C)=O)C(=O)OCC", "note": "(stereo unspecified)", "z-score": 1.81},
      {"compound": "Cc1ccc(CN2CCN(/N=C\\C(Br)=C\\c3ccccc3)CC2)cc1", "z-score": 0.0103},
      {"compound": "CC(C)(C)c1nn(-c2ccccc2)c2nc(Cl)c(C=O)cc12", "z-score": 0.527},
      {"compound": "O=C1c2ccccc2C(=O)N1CCSc1n[nH]c(=S)s1", "z-score": 0.477},
      {"compound": "O=C(CSc1nnc2c3ccccc3c3ccccc3c2n1)Nc1ccccc1", "z-score": -0.0629},
      {"compound": "O=c1cc(Nc2ccc3c(c2)OCCO3)[nH]c(=O)n1Cc1ccc(F)cc1", "z-score": 0.183},
      {"compound": "CN(C(=O)CSc1nnc(-c2ccncc2)n1C)C1CCS(=O)(=O)C1", "note": "(stereo unspecified)", "z-score": -0.767},
      {"compound": "CCOC(=O)N1CCC(=NNC(=O)c2ccc(O)cc2)CC1", "z-score": -0.136},
      {"compound": "N/C(=N\\OC(=O)CCCCCN1C(=O)c2ccccc2C1=O)c1ccccc1", "z-score": -0.204},
      {"compound": "O=C(O)[C@@H]1CCCC[C@@H]1C(=O)N1CCc2ccccc2C1CN1C(=O)c2ccccc2C1=O", "note": "(stereo partly specified)", "z-score": -1.07},
      {"compound": "O=C(CCN1C(=O)C2CC=C(Cl)CC2C1=O)NC1CCCCC1", "note": "(stereo unspecified)", "z-score": 0.761},
      {"compound": "COc1ccc(NC(=O)CCc2c(C)nc3nc(C)nn3c2C)cc1", "z-score": -0.217},
      {"compound": "O=C(Nc1cccc(C(F)(F)F)c1)C1CCCCC1", "z-score": 0.0112},
      {"compound": "COC(=O)C(C(=O)Nc1ccc(OC)cc1)C1CCCCCC1", "note": "(stereo unspecified)", "z-score": 0.107},
      {"compound": "O=C(COC(=O)CNC(=O)c1cccc([N+](=O)[O-])c1)Nc1cccc(S(=O)(=O)N2CCCC2)c1", "z-score": -0.387},
      {"compound": "Cc1c(Cl)cnc(NC(=O)COC(=O)CCC(=O)c2cccs2)c1Cl", "z-score": -0.28},
      {"compound": "COCCN1C=C(C(=O)OC)C(c2ccccc2C(F)(F)F)C(C(=O)OC)=C1", "z-score": -0.31},
      {"compound": "C=CCNc1nc(N2CCCCC2)c(C#N)c2c1CN(Cc1ccccc1)CC2", "z-score": 0.721},
      {"compound": "Cc1ccc(NC(=O)N2CCC(c3nc4c(nnn4Cc4cccc(Cl)c4)c(=O)[nH]3)CC2)cc1", "z-score": 0.913},
      {"compound": "COc1cccc(N(C(=O)CNC(=O)c2ccco2)C(C(=O)NC2CCCCC2)c2ccncc2)c1", "note": "(stereo unspecified)", "z-score": -0.325},
      {"compound": "COc1cc(/C=N/n2cnnc2)ccc1OCCOc1ccccc1", "z-score": -0.279},
      {"compound": "O=C(Nc1ccc2c(c1)OCCO2)c1ccco1", "z-score": 0.098}
    ]}
  ]
}
